PubChem BioAssay AID651820 (National Center for Advancing Translational Sciences (NCATS), 2012)
Hit rate of the full screen: of about 340,000 compounds, about 12,000 (3.5%) were called active. Inconclusive means that the source gave no clear call. Such entries were picked first, then a sample of the others. Calls come from the whole dose curve; as a rule, active = well fitted inhibition curve with a large enough effect; inconclusive = small, poorly fitted or top-dose-only effect, or another doubt; inactive = no such curve, though single readings can be large or run the other way. No potency is given beside an inconclusive call; the fits are too rough.

assay: qHTS Assay for Inhibitors of Hepatitis C Virus (HCV); settings: Huh7.5.1 HCVcc-Cre (HCVcc is cell-culture hepatitis C virus) infection, luciferase reporter, 44 h; series mostly up to 41.8 µM
Outline: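 1,000 cells/well; 4 h culture; + compound; + HCVcc-Cre (~0.5 moi); 44 h; luciferase substrate, RT 15 min; read 15 sec.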
Potency is the fitted concentration of half-maximal effect; tags give direction and shape of the fitted curve.

Row | SMILES | Potency
1 | CCCc1cc(=O)oc2c3c(cc(OCC(=O)NCc4ccccn4)c12)OC(C)(C)CC3 | active: 10 µM
2 | O=C(NC(NC(=S)Nc1c(Cl)cccc1Cl)C(Cl)(Cl)Cl)OCc1ccccc1 (configuration not stated) | inconclusive [inhibitor, single point]
3 | COc1ccc(-n2nc3c(c2NC(=O)C2CC(=O)N(c4ccccc4)C2)CS(=O)(=O)C3)cc1 (configuration not stated) | inactive
4 | Cc1c(NC(=S)N/N=C\c2ccccc2O)c(=O)n(-c2ccccc2)n1C | inconclusive [inhibitor, full curve, poor fit]
5 | Cc1noc(C)c1S(=O)(=O)N1CCC(C(=O)NCCC2=CCCCC2)CC1 | inconclusive [inhibitor, single point]
6 | COc1ccc(/C=N/NC(=O)c2c(C)nc3ccc(Cl)cn23)cc1OC | inactive
7 | NC(=O)COc1c(-c2ccc(Br)o2)oc2ccccc2c1=O | inactive
8 | COc1ccccc1NS(=O)(=O)c1cc(-c2cnc(C3CC3)o2)ccc1C | inconclusive [inhibitor, single point]
9 | COc1ccc(S(=O)(=O)N(C)C)cc1NCC(=O)Nc1ccc(Br)cc1F | inconclusive [inhibitor, single point]
10 | CC1C/C(=C/c2ccncc2)C(=O)/C(=C/c2ccncc2)C1 (configuration not stated) | inconclusive [inhibitor, full curve]
11 | CCCCc1ccc(NC(=O)CSC2=NN3CCCC(=O)N=C3S2)cc1 | active: 11.2 µM
12 | COc1cc(/C=C(/C#N)c2ccc(F)cc2)ccc1Oc1ccc([N+](=O)[O-])cn1 | active: 2.51 µM
13 | Cc1cc(N2CCCC2)ccc1/C=C1/C(=O)N(C)C(=S)N1C | inconclusive [inhibitor, partial curve]
14 | COc1ccc(C(CNC(=O)c2cccc(S(=O)(=O)Nc3ccc(C)cc3)c2)N2CCCCC2)cc1 (configuration not stated) | active: 3.16 µM
15 | COc1ccc(NC(=S)c2ccncc2)cc1 | inactive
16 | O=S(=O)(Nc1ccc(N=Nc2ccc(O)c3ccccc23)cc1)c1ccccc1 | inconclusive [inhibitor, single point]
17 | O=S(=O)(c1cccc(-c2nnc(SCc3ccc(Cl)cc3)o2)c1)N1CCCCC1 | inconclusive [inhibitor, partial curve]
18 | Cc1cccc2cc(COC(=O)COc3ccccc3)c(=O)[nH]c12 | inconclusive [inhibitor, single point]
19 | CCOC(=O)CCC(=O)N1CCOCCOCCOCC1 | inactive
20 | CC(=O)Oc1ccc(OC(C)=O)c(SCCCCCCl)c1 | active: 11.2 µM
21 | CC(C)(C)C1CCC(N2CCN(c3ccccc3)CC2)CC1 (configuration not stated) | inconclusive [inhibitor, single point]
22 | COCCNC(=O)c1cc(-c2ccccc2OC)on1 | inconclusive [inhibitor, single point]
23 | COc1ccc(S(=O)(=O)Nc2cc3c4c(c2)CCC(=O)N4CCC3)cc1 | inconclusive [inhibitor, partial curve]
24 | CCC(C)Oc1cccc(C(=O)Nc2ccccc2N2CCOCC2)c1 (configuration not stated) | active: 7.08 µM

Row | SMILES | Potency
25 | CCOc1ccccc1N=Nc1c(C)[nH]n(C(N)=S)c1=O | active: 10 µM
26 | CCCCC(CC)COC(=O)c1ccccc1C(=O)OCC(CC)CCCC (configuration not stated) | active: 5.62 µM
27 | O=C(OCc1ccccc1Cl)c1cc([N+](=O)[O-])ccc1N1CCOCC1 | inconclusive [inhibitor, partial curve]
28 | Cc1cc(OCc2ccc(F)cc2)nc(-c2ccccc2O)n1 | inconclusive [inhibitor, single point]
29 | COc1ccccc1N1CCN(C(CNC(=O)c2ccc3c(c2)OCO3)c2cccnc2)CC1 (configuration not stated) | active: 11.2 µM
30 | Cc1ccc(C)c(OCCCC(=O)Nc2nccs2)c1 | active: 12.6 µM
31 | Cc1c(CCO)c(=O)n2c([nH]c3ccccc32)c1C#N | inactive
32 | CC(C)CC(NC(N)=O)C(=O)NCc1ccccc1Cl (configuration not stated) | inactive
33 | COc1ccc(NC(=S)Nc2ccccc2)cn1 | inactive
34 | CC1=NN(c2ccccc2)C(=O)/C1=C/C=C/C=C/N(C)C | inconclusive [inhibitor, partial curve]
35 | CC[C@@]1(c2ccccc2OC)ON(c2ccccc2C(F)(F)F)C1=O | inconclusive [inhibitor, partial curve]
36 | CCOc1cc(CNCCc2ccccc2)ccc1OCC(=O)NC(C)(C)C | inconclusive [inhibitor, partial curve]
37 | CC(C)(C)N(Cc1ccccc1)C(=O)CN1C(=O)c2ccccc2S1(=O)=O | inactive
38 | CN(CC(=O)Nc1ccc(F)c(Cl)c1)S(=O)(=O)c1ccc2c(c1)n(C)c(=O)c(=O)n2C | inactive
39 | Cc1ccc2c(c1)c1c3n2CCCNC3CCC1 (configuration not stated) | inconclusive [inhibitor, single point]
40 | COc1ccc(Br)cc1C(=O)NC(=S)Nc1c(C)n(C)n(-c2ccccc2)c1=O | inconclusive [inhibitor, partial curve]
41 | COc1ccccc1NC(=O)C(=O)N1N=C(C(C)C)CC1(O)C(F)(F)F (configuration not stated) | inconclusive [inhibitor, single point]
42 | Cc1cc(C2=NNC(=NC3CC3)SC2)c(C)n1-c1ccccc1F | active: 11.2 µM
43 | Cc1cc(C)cc(NC(=O)/C(C#N)=C/c2cn(CC(=O)NCc3ccco3)c3ccccc23)c1 | inconclusive [inhibitor, full curve, poor fit]
44 | Clc1ccc2oc(-c3ccccc3)cc(=NCCCN3CCOCC3)c2c1 | inconclusive [inhibitor, partial curve, poor fit]
45 | O=C(O)c1nnn(-c2ccc(F)cc2F)c1-c1ccccc1 | inconclusive [inhibitor, single point]
46 | Cc1cc(OCC(=O)NNC(=S)NC(=O)c2cccs2)ccc1Cl | inconclusive [inhibitor, partial curve]
47 | N=C1C(c2nc3ccccc3s2)=C(O)CN1Cc1ccco1 | inconclusive [inhibitor, single point]
